PubChem BioAssay AID686978 (National Center for Advancing Translational Sciences (NCATS), 2013)
“And” between values parts separate entries of the source, which are not always exact repeats. Identical values can stand only once. Out of some 420,000 compounds screened, about 64,000 (15%) were called active. The shares of active, inactive and inconclusive entries below differ from those in the screen. The call rests on the fitted dose curve; in most records, active means well fitted inhibition curve with a large enough effect; inconclusive means small, poorly fitted or top-dose-only effect; inactive means flat fitted curve, though single readings scatter. Where the call is inconclusive, the potency comes from a doubtful curve fit.

experiment: qHTS for Inhibitors of human tyrosyl-DNA phosphodiesterase 1 (TDP1): qHTS in cells in absence of CPT; details: DT40 Tdp1-/- hTDP1 cells, no CPT, ATP luminescence, 48 h; activity change, negative = growth inhibition: at 46.2 µM (top of the series); further: nearly all actives have a fitted effect of over 55% in size
Method in brief: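 DT40 Tdp1-/-;hTDP1 cells, no CPT (DMSO vehicle only), 400 cells/well; compounds pin-transferred; ≥48 hr, 37 °C; CellTiter-Glo 30 min RT dark, luminescence read.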
On the % scale 0 is the no-effect control and ±100 the full control effect; potency means the concentration at half of the fitted maximal effect; tags describe the fitted curve by direction and shape.

SMILES | Potency | activity change, negative = growth inhibition
O=C(c1cc(F)c(F)cc1Cl)N1CCN(c2ccc([N+](=O)[O-])c3ncccc23)CC1 | inconclusive: 14.6 µM [inhibitor, partial curve] | 
CCN(CC)c1ccc(/C=C/c2ccc3ccc(OC)cc3[n+]2CC)cc1 | active: 0.184 µM | 
Cc1cccc(NC(=O)CCc2nnc3ccc(NCc4ccco4)nn23)n1 | inactive | 
O=C(C[C@H]1C/C=C\C[C@H](NC(=O)OCC2c3ccccc3-c3ccccc32)C(=O)O[C@H](c2ccccc2)CNC1=O)N[C@H](CO)Cc1ccccc1 | active: 3.66 µM | 
CCOc1ccccc1NC(=O)c1ccc2c(c1)CCN2S(C)(=O)=O | inconclusive: 14.6 µM [inhibitor, partial curve, poor fit] | 
CCOc1ccc2nc(NCCNC(=O)C(C)(C)C)c(C)cc2c1 | inactive | 
COc1cc2c(Cc3ccccc3)cncc2cc1O | inconclusive: 23.1 µM [inhibitor, single point] | 
CN(C)c1ccc(C(=S)N2CCN(Cc3ccccc3)CC2)cc1 | inconclusive: 29.1 µM [inhibitor, single point] | 
COc1cc(/C=N/N(CCO)C2=NS(=O)(=O)c3ccccc32)cc(OC)c1OC | inconclusive: 14.6 µM [inhibitor, partial curve] | 
COc1ccc(NS(=O)(=O)c2ccc(C)c(C(=O)NNC(=O)c3csc(N4CCOCC4)n3)c2)cc1 | inactive | 
COC(=O)C1CCCCN1Cc1ccc2c(c1)CN(Cc1cc(OC)c3c(c1)OCO3)CCO2 (stereo unspecified) | inconclusive: 29.1 µM [inhibitor, single point] | 
Cc1[nH]n(-c2ccccc2)c(=O)c1Sc1ccc(Cl)cc1 | inconclusive: 29.1 µM [inhibitor, single point] | 
CC1CC(=O)Nc2ccccc2N1S(=O)(=O)c1cccc(Cl)c1 (stereo unspecified) | inconclusive: 11.6 µM [inhibitor, partial curve] | 
Clc1ccc(NCc2cccnc2)c(Cl)c1 | inconclusive: 29.1 µM [inhibitor, single point] | 
OCC1(CC2CCCCO2)CCN(C/C=C/c2ccccc2)CC1 (stereo unspecified) | inactive | 
COC(=O)c1ccc(C)c(NC(=O)c2ccc(Cn3cc([N+](=O)[O-])cn3)o2)c1 | inconclusive: 29.1 µM [inhibitor, single point] | 
CC(NC(=O)C(NC(=O)C(Cc1c[nH]c2ccccc12)NC(=O)OC(C)(C)C)C(C)C)C(N)=O (stereo unspecified) | inactive | 
COc1ccc(NC(=O)c2cc(-c3ccccc3)nc3c2cnn3C(C)C)c(OC)c1 | inconclusive: 29.1 µM [inhibitor, single point] | 
O=C(CNc1cccc2ccccc12)N/N=C/C(Br)=C/c1ccccc1 | active: 10 µM | 
COc1ccc(C2c3ccc(O)cc3Oc3ncn(CCCO)c(=N)c32)cc1 (stereo unspecified) | inconclusive: 29.1 µM [inhibitor, single point] | 
CCCC(=O)Nc1nnc(SCc2cc(=O)n3ccccc3n2)s1 |  | inconclusive: -31.5% [inhibitor]
CC(C)(C)CC(C)(C)c1ccc(O)c(Cc2ccc(Cl)cc2Cl)c1 | inactive and inconclusive: 29.1 µM [inhibitor, single point] | 
COc1ccccc1CCNC(=O)Cn1ccc2cc(S(=O)(=O)N3CCCCC3)ccc21 | inconclusive: 29.1 µM [inhibitor, single point] | 
COC(=O)CCC(C)C1CCC2C3CCC4CC(O)CCC4(C)C3=CC(=O)C12C (stereo unspecified) | inconclusive: 23.1 µM [inhibitor, single point] | 

SMILES | Potency | activity change, negative = growth inhibition
COc1ccc(CNC(=O)CCS(=O)(=O)c2ccc3c(c2)NC(=O)CS3)cc1 | inactive | 
O=C(CSc1ccc2nnc(-c3cccc(F)c3)n2n1)N1CCCc2ccccc21 | active: 18.4 µM | 
CCn1cc(C2=NOC(C(=O)Nc3cccc(C(C)=O)c3)C2)c(C)n1 (stereo unspecified) | inconclusive: 16.4 µM [inhibitor, partial curve] | 
c1ccc(COC2CCCN(Cc3nc(-c4cnccn4)no3)C2)nc1 (stereo unspecified) | inactive | 
COc1ccc(NS(=O)(=O)c2ccc(OC)c(OC)c2)cc1OC | inconclusive: 14.6 µM [inhibitor, single point] | 
Cc1ccc(S(=O)(=O)N2CCC(c3nc4c(nnn4Cc4ccccc4)c(=O)[nH]3)CC2)cc1 | inactive | 
CC(=O)c1ccc2c(c1)C1C=CCC1C(c1ccc(S(=O)(=O)N3CCOCC3)cc1)N2 (stereo unspecified) | inconclusive: 23.1 µM [inhibitor, single point] | 
CCCNC(=O)NC(=O)COC(=O)c1ccc(S(=O)(=O)N(C)c2ccccc2OC)cc1 | active: 20.6 µM | 
CCOC(=O)c1c(NC(=O)c2ccc(S(=O)(=O)N3CCOCC3)cc2)sc2c1CCN(C)C2 | inconclusive: 20.6 µM [inhibitor, single point] | 
O=C(Cc1ccc(Cl)cc1)NCCS(=O)(=O)N1CCN(c2ccccc2F)CC1 | active: 5.8 µM | 
CCN(CC)Cc1c(O)ccc2c(=O)c(-c3ccc4c(c3)OCCO4)coc12 | active: 10.3 µM | 
COc1cc(F)ccc1-c1csc(C(C)(O)c2ccccc2)n1 (stereo unspecified) | active: 18.4 µM | 
COC(=O)c1sccc1NC(=O)Cn1nnc(-c2ccc(C)cc2)n1 | inconclusive: 16.4 µM [inhibitor, single point] | 
O=C(NC1CCCCC1)c1ccc2c(c1)N(Cc1ccccc1F)C(=O)c1ccccc1S2 | inconclusive: 16.4 µM [inhibitor, partial curve, poor fit] | 
O=S(=O)(Nc1cccnc1Cl)c1ccc2c(c1)OCCO2 | inactive | 
CC(C)OP(=O)(OC(C)C)C1(O)C(=O)Nc2ccc(Br)cc21 (stereo unspecified) | inconclusive: 0.651 µM [inhibitor, full curve, poor fit] | 
c1cncc(CNc2ncnc3ccc(-c4ccoc4)cc23)c1 | inconclusive: 9.2 µM [inhibitor, partial curve, poor fit] | 
O=S(=O)(c1ccc(-c2ccccc2)cc1)N1CCOCC1 | inactive | 
CC(NC(=O)C(=O)N1CCOCC1)C(c1cccs1)N1CCN(c2ccc(F)cc2)CC1 (stereo unspecified) | inactive | 
O=c1cc(CN2CCCCCC2)nc2sccn12 | inconclusive: 29.1 µM [inhibitor, single point] | 
COc1ccc(/C=N/NC(=O)c2[nH]c3ccc(Cl)cc3c2-c2ccccc2)c(C(=O)O)c1OC | inconclusive: 29.1 µM [inhibitor, single point] | 
CCCCn1c(CN2CCN(c3ccc(OC)cc3)CC2)nc2c1c(=O)[nH]c(=O)n2C | inconclusive: 29.1 µM [inhibitor, single point] | 
Cn1cccc1/C=C1\SC(=O)N(CC(=O)Nc2ccc(F)cc2)C1=O | inactive | 
O=C(NCc1ccccc1)c1cc[n+]([O-])cc1 | inactive | 

SMILES | Potency | activity change, negative = growth inhibition
O=C(NCc1ccccn1)C1CCCN(Cc2cnn(-c3ccccc3)c2-n2cccc2)C1 (stereo unspecified) |  | inconclusive: -34.2% [inhibitor]
Cc1cccc(NC(=O)CSc2nnc(CNC(=O)c3cccc(C)c3)n2-c2ccccc2)c1 | inconclusive: 23.1 µM [inhibitor, single point] | 
Cn1c(N)c(C(=O)COC(=O)c2cc(C3CC3)nc3ccccc23)c(=O)n(Cc2ccccc2)c1=O | inactive | 
c1ccc(-c2nnsc2-c2nc3ccccc3[nH]2)cc1 | inconclusive: 29.1 µM [inhibitor, single point] | 
Cc1ccc(CNC(=O)C2CCN(Cc3nc(-c4ccccc4C)oc3C)CC2)cc1 | inconclusive: 5.17 µM [inhibitor, full curve, poor fit] | 
COc1ccc(OCC(=O)N2CCN(C(=O)c3cccc4ccccc34)CC2)cc1 | inactive | 
CC(C)NC(=O)/C(C#N)=C/c1ccc2c(c1)OCCO2 | inconclusive: 18.4 µM [inhibitor, single point] | 
CCN(CC(=O)Nc1cc(Cl)cc(Cl)c1)CC(=O)NC1CCS(=O)(=O)C1 (stereo unspecified) | inconclusive: 29.1 µM [inhibitor, single point] | 
COc1cc(C2Nc3ccccc3NC3=C2C(=O)CC(C)(C)C3)cc(OC)c1OC (stereo unspecified) | inactive | 
CCc1nc2ccc(C(=O)NCCc3c[nH]c4ccccc34)cn2c1N(C)CCCc1ccccc1 | inconclusive: 18.4 µM [inhibitor, single point] | 
COc1cccc(C(NC(C)=O)c2nc(-c3ccccc3C)cs2)c1 (stereo unspecified) | inconclusive: 16.4 µM [inhibitor, single point] | 
Cc1csc(=Nc2ccccc2)n1CCCN1CCCC1=O | inactive | 
CC(C)NC(=O)[C@]1(C)CCC[C@@]2(C)C3CC[C@@]4(C)C[C@]3(CCC21)CC4=O (stereo partly specified) | inactive | 
CC(C)[C@H](NC(=O)c1ccco1)C(=O)OCC(=O)Nc1cccc(F)c1 | inactive | 
Cc1ccccc1Cn1c(-c2cccs2)nc2ccccc21 | active: 16.4 µM | 
COc1ccc(-c2noc(CN(C(=O)c3ccccc3Cl)C(C)C)n2)cc1 | active: 18.4 µM | 
CCOC(=O)C1CCCN(C(=O)Cn2ncc3c(=O)oc4ccc(C)cc4c32)C1 (stereo unspecified) | inactive | 
CCOC(=O)C1=NNC2(c3ccc(Cl)cc3)C(=O)N(c3cc(C)cc(C)c3)C(=O)C12 (stereo unspecified) | inactive | 
COc1ccccc1C(=O)COC(=O)CSCC(=O)Nc1cc(C)on1 | inactive | 
Cc1cc(SCC(=O)N/N=C/c2ccc(O)c(O)c2)nc2ccccc12 | inconclusive: 14.6 µM [inhibitor, single point] | 
Cc1ccc2nc(CSc3nnc(NC(=O)CC(C)C)s3)cc(=O)n2c1 | inconclusive: 29.1 µM [inhibitor, single point] | 
CCCCNC(=O)CCCCCNS(=O)(=O)c1ccc(Br)cc1 | inconclusive: 29.1 µM [inhibitor, single point] | 
Cc1sc2nc(CN3CCOCC3)nc(NS(=O)(=O)c3cc(Cl)ccc3Cl)c2c1C | inactive | 
